Some of the results follow. Sequences were assembled here from the parent chain. Inactive controls read about 0.05.
B1: TEV protease; numbered along this chain (parent)
chain: MGESLFKGPRDYNPISSSICHLTNESDGHTTSLYGIGFGPFIITNKHLFRRNNGTLVVQSLHGVFKVKDTTTLQQHLVDGRDMIIIRMPKDFPPFPQKLKFREPQREERICLVTTNFQTKSMSSMVSDTSCTFPSGDGIFWKHWIQTKDGQCGSPLVSTRDGFIVGIHSASNFTNTNNYFTSVPKNFMELLTNQEAQQWVSGWRLNADSVLWGGHKVFMVKPEEPFQPVKEATQL

Variants of: B1
Assay: raw area under fraction-flipped curve 0-4 h after induction (AUC4h, not background-subtracted), DNA-recorder readout of cleavage of the substrate (dimensionless); higher = more cleavage of the substrate by the protease variant
Details: temperature: 34 °C; time window: 0-4 h after rhamnose induction
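Note: Bxb1 expression induced with 0.2% (w/v) L-rhamnose at OD600 near 0.5, cultures sampled hourly, flipped fraction per protease–substrate barcode pair counted by paired-end Illumina sequencing.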

Row | Variant | area with substrate EALYFQS | area with substrate EGLYFQS | area with substrate EHLYFQS | area with substrate EILYFQS | area with substrate EKLYFQS | area with substrate ERLYFQS | area with substrate ESLYFQS | area with substrate EDLYFQS | area with substrate EELYFQS | area with substrate ELLYFQS | area with substrate EMLYFQS | area with substrate EPLYFQS | area with substrate ETLYFQS | area with substrate EVLYFQS | area with substrate EYLYFQS | area with substrate ECLYFQS | area with substrate EFLYFQS | area with substrate EQLYFQS | area with substrate EWLYFQS
1 | MGESLFKGPRDYNPISSSICHLTNESDGHTTSLYGIGFGPFIITNKHLFRRNNGTLVVQSLHGVFKVKDTTTLQQHLVDGRDMIIIRMPKDFPPFPQKLKFREPQREERICLVTTNFQTKSMSSMVSDTSCTFPSGDGIFWKHWIQTKDGQCGSPLVSTRDGFIVGIHSASNFTNTNNYFTSVPKNFMELLTNQEAQQWVSGWRLNADSVLWGGHKVFMVKPEEPFQPVKEAEQL [T233E] | 0.112 | 0.101 | 0.105 | 0.1 | 0.134 | 0.0953 | 0.0979 | – | – | – | – | – | – | – | – | – | – | – | –
2 | MGESLFKGPRDYNPISSSICHLTNESDGHTTSLYGIGFGPFIITNKHLFRRNNGTLVVQSLHGVFKVKDTTTLQQHLVDGRDMIIIRMPKDFPPFPQKLKFREPQREERICLVTTNFQTKSMSSMVSDTSCTFPSGDGIFWKHWIQTKDGQCGSPLVSTRDGFIVGIHSASNFTNTNNYFTSVPKNFMELLTNQEAQQWVSGWRLNADSVLWGGHKVFMVKPEEPFQPVKEAMQL [T233M] | 0.104 | 0.107 | 0.0976 | 0.0871 | – | 0.0834 | 0.0945 | 0.138 | 0.102 | 0.102 | 0.0924 | 0.056 | 0.144 | 0.0951 | 0.0849 | – | – | – | –
3 | MGESLFKGPRDYNPISSSICHLTNESDGHTTSLYGIGFGPFIITNKHLFRRNNGTLVVQSLHGVFKVKDTTTLQQHLVDGRDMIIIRMPKDFPPFPQKLKFREPQREERICLVTTNFQTKSMSSMVSDTSCTFPSGDGIFWKHWIQTKDGQCGSPLVSTRDGFIVGIHSASNFTNTNNYFTSVPKNFMELLTNQEAQQWVSGWRLNADSVLWGGHKVFMVKPEEPFQPVKEAQQL [T233Q] | 0.153 | 0.109 | – | 0.0855 | – | 0.0985 | – | – | – | – | – | – | 0.113 | 0.127 | 0.124 | 0.114 | – | – | –
4 | MGESLFKGPRDYNPISSSICHLTNESDGHTTSLYGIGFGPFIITNKHLFRRNNGTLVVQSLHGVFKVKDTTTLQQHLVDGRDMIIIRMPKDFPPFPQKLKFREPQREERICLVTTNFQTKSMSSMVSDTSCTFPSGDGIFWKHWIQTKDGQCGSPLVSTRDGFIVGIHSASNFTNTNNYFTSVPKNFMELLTNQEAQQWVSGWRLNADSVLWGGHKVFMVKPEEPFQPVKEATTL [Q234T] | 0.114 | 0.125 | – | 0.0839 | – | 0.106 | 0.115 | 0.107 | 0.109 | 0.0959 | 0.124 | 0.107 | – | 0.0792 | – | – | 0.0874 | 0.113 | 0.097
5 | MGESLFKGPRDYNPISSSICHLTNESDGHTTSLYGIGFGPFIITNKHLFRRNNGTLVVQSLHGVFKVKDTTTLQQHLVDGRDMIIIRMPKDFPPFPQKLKFREPQREERICLVTTNFQTKSMSSMVSDTSCTFPSGDGIFWKHWIQTKDGQCGSPLVSTRDGFIVGIHSASNFTNTNNYFTSVPKNFMELLTNQEAQQWVSGWRLNADSVLWGGHKVFMVKPEEPFQPVKEATVL [Q234V] | 0.0848 | – | – | 0.101 | – | 0.0598 | 0.0767 | – | 0.101 | 0.0981 | – | – | – | 0.0772 | 0.0691 | – | – | – | 0.0804
6 | MGESLFKGPRDYNPISSSICHLTNESDGHTTSLYGIGFGPFIITNKHLFRRNNGTLVVQSLHGVFKVKDTTTLQQHLVDGRDMIIIRMPKDFPPFPQKLKFREPQREERICLVTTNFQTKSMSSMVSDTSCTFPSGDGIFWKHWIQTKDGQCGSPLVSTRDGFIVGIHSASNFTNTNNYFTSVPKNFMELLTNQEAQQWVSGWRLNADSVLWGGHKVFMVKPEEPFQPVKEATSL [Q234S] | 0.0862 | – | 0.0992 | 0.1 | 0.0906 | – | 0.113 | – | 0.0919 | – | 0.137 | 0.109 | 0.117 | 0.117 | – | 0.0976 | – | 0.115 | –
7 | MGESLFKGPRDYNPISSSICHLTNESDGHTTSLYGIGFGPFIITNKHLFRRNNGTLVVQSLHGVFKVKDTTTLQQHLVDGRDMIIIRMPKDFPPFPQKLKFREPQREERICLVTTNFQTKSMSSMVSDTSCTFPSGDGIFWKHWIQTKDGQCGSPLVSTRDGFIVGIHSASNFTNTNNYFTSVPKNFMELLTNQEAQQWVSGWRLNADSVLWGGHKVFMVKPEEPFQPVKEATQE [L235E] | 0.137 | – | – | – | – | – | 0.104 | – | – | – | – | – | – | – | – | 0.106 | – | – | 0.0724
8 | MGESLFKGPRDYNPISSSICHLTNESDGHTTSLYGIGFGPFIITNKHLFRRNNGTLVVQSLHGVFKVKDTTTLQQHLVDGRDMIIIRMPKDFPPFPQKLKFREPQREERICLVTTNFQTKSMSSMVSDTSCTFPSGDGIFWKHWIQTKDGQCGSPLVSTRDGFIVGIHSASNFTNTNNYFTSVPKNFMELLTNQEAQQWVSGWRLNADSVLWGGHKVFMVKPEEPFQPVKEATQQ [L235Q] | 0.107 | – | 0.121 | 0.0916 | 0.0974 | – | 0.122 | – | – | – | 0.114 | 0.159 | – | 0.111 | 0.0995 | 0.0987 | 0.133 | 0.149 | –
9 | MGESLFKGPRDYNPISSSICHLTNESDGHTTSLYGIGFGPFIITNKHLFRRNNGTLVVQSLHGVFKVKDTTTLQQHLVDGRDMIIIRMPKDFPPFPQKLKFREPQREERICLVTTNFQTKSMSSMVSDTSCTFPSGDGIFWKHWIQTKDGQCGSPLVSTRDGFIVGIHSASNFTNTNNYFTSVPKNFMELLTNQEAQQWVSGWRLNADSVLWGGHKVFMVKPEEPFQPVKVATQL [E231V] | 0.129 | – | – | 0.0715 | – | 0.0959 | 0.117 | – | 0.126 | 0.115 | 0.117 | 0.124 | – | 0.0876 | – | 0.11 | – | 0.119 | –
10 | MGESLFKGPRDYNPISSSICHLTNESDGHTTSLYGIGFGPFIITNKHLFRRNNGTLVVQSLHGVFKVKDTTTLQQHLVDGRDMIIIRMPKDFPPFPQKLKFREPQREERICLVTTNFQTKSMSSMVSDTSCTFPSGDGIFWKHWIQTKDGQCGSPLVSTRDGFIVGIHSASNFTNTNNYFTSVPKNFMELLTNQEAQQWVSGWRLNADSVLWGGHKVFMVKPEEPFQPVKNATQL [E231N] | 0.0991 | – | – | 0.0874 | – | – | 0.0921 | 0.137 | – | 0.0828 | 0.125 | – | 0.118 | 0.109 | 0.117 | – | – | – | 0.101
